For the assay, the target named is T1, Recombinant CD3epsilon/delta Fc fusion protein (Sino Biological) (UniProt P07766 23-126; P04234 22-105).
T1 construct: Bought reagent; also called recombinant CD3 fusion protein; CD3 antigen; not shown: Fc part of the bought fusion protein; not described
Briefly: SPR, BioRad ProteOn XPR36, 25 C, anti-Fc capture chip, Equilibrium Fit model, mean of three runs. A general note: SPR reads the build-up and loss of mass on a sensor chip optically.

For one molecule, Kd results are on record in patent US20180193477A1 (Zymeworks, published 2018).

B1: v6751, bispecific anti-CD3-CD19 antigen-binding construct (murine HD37 Fab / murine OKT3 scFv, heterodimeric Fc) (bispecific antibody, human IgG1, kappa)
heavy: QVQLQQSGAELVRPGSSVKISCKASGYAFSSYWMNWVKQRPGQGLEWIGQIWPGDGDTNYNGKFKGKATLTADESSSTAYMQLSSLASEDSAVYFCARRETTTVGRYYYAMDYWGQGTTVTVSSASTKGPSVFPLAPSSKSTSGGTAALGCLVKDYFPEPVTVSWNSGALTSGVHTFPAVLQSSGLYSLSSVVTVPSSSLGTQTYICNVNHKPSNTKVDKK[human IgG1 Fc with changes omitted here]
chain: QIVLTQSPAIMSASPGEKVTMTCSASSSVSYMNWYQQKSGTSPKRWIYDTSKLASGVPAHFRGSGSGTSYSLTISGMEAEDAATYYCQQWSSNPFTFGSGTKLEINGGGGSGGGGSGGGGSQVQLQQSGAELARPGASVKMS[about 80 residues omitted here][about 250 residues omitted here]
light: DIQLTQSPASLAVSLGQRATISCKASQSVDYDGDSYLNWYQQIPGQPPKLLIYDASNLVSGIPPRFSGSGSGTDFTLNIHPVEKVDAATYHCQQSTEDPWTFGGGTKLEIKRTVAAPSVFIFPPSDEQLKSGTASVVCLLNNFYPREAKVQWKVDNALQSGNSQESVTEQDSKDSTYSLSSTLTLSKADYEKHKVYACEVTHQGLSSPVTKSFNRGEC
notes: also called parental murine construct v6751
Usually Kd stands for the free concentration of one partner at which half of the binding sites on the other are occupied at equilibrium, for simple one-to-one binding. On to B1, for which the Kd worked out at 141 nM.
